# This is one part of the list.
# Legend:
# Assay in all cases: glycan array binding signal (z-score within array); higher = stronger binding
# Conditions in all cases: glycan notation: IUPAC condensed, linker removed
# [1] = target: Neu5Ac(a2-6)Gal(b1-4)GlcNAc(b1-2)Man(a1-3)[GlcNAc(b1-4)][Neu5Ac(a2-6)Gal(b1-4)GlcNAc(b1-2)Man(a1-6)]Man(b1-4)GlcNAc(b1-4)GlcNAc
# Method in brief: (§1)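 Negative Z-scores can be read as non-binding. The Z-score is calculated within each array and then averaged across arrays of one protein sequence at different concentrations or buffers and across linkers. Arrays, 3228 in all, were curated from the Consortium for Functional Glycomics database and kept only where the protein sequence was available.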
# [2] = target: Neu5Ac(a2-6)Gal(b1-4)GlcNAc(b1-2)Man(a1-3)[Man(a1-6)]Man(b1-4)GlcNAc(b1-4)GlcNAc
# Method in brief: as §1
# [3] = target: Neu5Ac(a2-6)Gal(b1-4)GlcNAc(b1-2)Man(a1-3)[Neu5Ac(a2-3)Gal(b1-4)GlcNAc(b1-2)Man(a1-6)]Man(b1-4)GlcNAc(b1-4)GlcNAc
# Method in brief: as §1
# [4] = target: Neu5Ac(a2-6)Gal(b1-4)GlcNAc(b1-2)Man(a1-3)[Neu5Ac(a2-6)Gal(b1-4)GlcNAc(b1-2)Man(a1-6)]Man(b1-4)GlcNAc(b1-4)GlcNAc
# Method in brief: as §1
# [5] = target: Neu5Ac(a2-6)Gal(b1-4)GlcNAc(b1-2)Man(a1-3)[Neu5Ac(a2-6)Gal(b1-4)GlcNAc(b1-2)Man(a1-6)]Man(b1-4)GlcNAc(b1-4)[Fuc(a1-6)]GlcNAc
# Method in brief: as §1
# [6] = target: Neu5Ac(a2-6)Gal(b1-4)GlcNAc(b1-2)Man(a1-6)Man(b1-4)GlcNAc(b1-4)GlcNAc
# Method in brief: as §1
# [7] = target: Neu5Ac(a2-6)Gal(b1-4)GlcNAc(b1-2)Man(a1-6)[Gal(b1-4)GlcNAc(b1-2)Man(a1-3)]Man(b1-4)GlcNAc(b1-4)GlcNAc
# Method in brief: as §1
# [8] = target: Neu5Ac(a2-6)Gal(b1-4)GlcNAc(b1-2)Man(a1-6)[GlcNAc(b1-2)Man(a1-3)]Man(b1-4)GlcNAc(b1-4)GlcNAc
# Method in brief: as §1
# [9] = target: Neu5Ac(a2-6)Gal(b1-4)GlcNAc(b1-2)Man(a1-6)[Man(a1-3)]Man(b1-4)GlcNAc(b1-4)GlcNAc
# Method in brief: as §1
# [10] = target: Neu5Ac(a2-6)Gal(b1-4)GlcNAc(b1-2)[Neu5Ac(a2-6)Gal(b1-4)GlcNAc(b1-4)]Man(a1-3)[GlcNAc(b1-4)][Neu5Ac(a2-6)Gal(b1-4)GlcNAc(b1-2)[Neu5Ac(a2-6)Gal(b1-4)GlcNAc(b1-6)]Man(a1-6)]Man(b1-4)GlcNAc(b1-4)GlcNAc
# Method in brief: as §1
# [11] = target: Neu5Ac(a2-6)Gal(b1-4)GlcNAc(b1-2)[Neu5Ac(a2-6)Gal(b1-4)GlcNAc(b1-4)]Man(a1-3)[GlcNAc(b1-4)][Neu5Ac(a2-6)Gal(b1-4)GlcNAc(b1-4)Man(a1-6)]Man(b1-4)GlcNAc(b1-4)GlcNAc
# Method in brief: as §1
# [12] = target: Neu5Ac(a2-6)Gal(b1-4)GlcNAc(b1-2)[Neu5Ac(a2-6)Gal(b1-4)GlcNAc(b1-6)]Man(a1-6)[Neu5Ac(a2-6)Gal(b1-4)GlcNAc(b1-2)Man(a1-3)][GlcNAc(b1-4)]Man(b1-4)GlcNAc(b1-4)GlcNAc
# Method in brief: as §1
# [13] = target: Neu5Ac(a2-6)Gal(b1-4)GlcNAc(b1-3)Gal(b1-3)GlcNAc
# Method in brief: as §1
# [14] = target: Neu5Ac(a2-6)Gal(b1-4)GlcNAc(b1-3)Gal(b1-4)GlcNAc
# Method in brief: as §1
# [15] = target: Neu5Ac(a2-6)Gal(b1-4)GlcNAc(b1-3)Gal(b1-4)GlcNAc(b1-2)Man(a1-3)[Neu5Ac(a2-6)Gal(b1-4)GlcNAc(b1-3)Gal(b1-4)GlcNAc(b1-2)Man(a1-6)]GalNAc
# Method in brief: as §1
# [16] = target: Neu5Ac(a2-6)Gal(b1-4)GlcNAc(b1-3)Gal(b1-4)GlcNAc(b1-3)Gal(b1-4)GlcNAc
# Method in brief: as §1
# [17] = target: Neu5Ac(a2-6)Gal(b1-4)GlcNAc(b1-3)Gal(b1-4)GlcNAc(b1-3)Gal(b1-4)GlcNAc(b1-2)Man(a1-3)[Neu5Ac(a2-6)Gal(b1-4)GlcNAc(b1-3)Gal(b1-4)GlcNAc(b1-3)Gal(b1-4)GlcNAc(b1-2)Man(a1-6)]GalNAc
# Method in brief: as §1
# [18] = target: Neu5Ac(a2-6)Gal(b1-4)GlcNAc(b1-3)Gal(b1-4)GlcNAc(b1-3)GalNAc
# Method in brief: as §1
# [19] = target: Neu5Ac(a2-6)Gal(b1-4)GlcNAc(b1-3)Gal(b1-4)GlcNAc(b1-3)[Neu5Ac(a2-6)Gal(b1-4)GlcNAc(b1-3)Gal(b1-4)GlcNAc(b1-6)]GalNAc
# Method in brief: as §1
# [20] = target: Neu5Ac(a2-6)Gal(b1-4)GlcNAc(b1-3)Gal(b1-4)GlcNAc(b1-6)[Gal(b1-3)]GalNAc
# Method in brief: as §1
# [21] = target: Neu5Ac(a2-6)Gal(b1-4)GlcNAc(b1-3)Gal(b1-4)[Fuc(a1-3)]GlcNAc(b1-3)Gal(b1-4)[Fuc(a1-3)]GlcNAc
# Method in brief: as §1
# [22] = target: Neu5Ac(a2-6)Gal(b1-4)GlcNAc(b1-3)GalNAc
# Method in brief: as §1
# [23] = target: Neu5Ac(a2-6)Gal(b1-4)GlcNAc(b1-3)[Neu5Ac(a2-6)Gal(b1-4)GlcNAc(b1-6)]GalNAc
# Method in brief: as §1
# [24] = target: Neu5Ac(a2-6)Gal(b1-4)GlcNAc(b1-6)GalNAc
# Method in brief: as §1
# [25] = target: Neu5Ac(a2-6)Gal(b1-4)GlcNAc(b1-6)[Gal(b1-3)GlcNAc(b1-3)]Gal(b1-4)Glc
# Method in brief: as §1
# [26] = target: Neu5Ac(a2-6)Gal(b1-4)GlcNAc(b1-6)[Gal(b1-3)]GalNAc
# Method in brief: as §1
# [27] = target: Neu5Ac(a2-6)Gal(b1-4)GlcNAc6S
# Method in brief: as §1
# [28] = target: Neu5Ac(a2-6)GalNAc
# Method in brief: as §1
# [29] = target: Neu5Ac(a2-6)GalNAc(b1-4)GlcNAc
# Method in brief: as §1
# [30] = target: Neu5Ac(a2-6)GalNAc(b1-4)GlcNAc6S
# Method in brief: as §1
# [31] = target: Neu5Ac(a2-6)GlcNAc(b1-4)GlcNAc
# Method in brief: as §1
binder,measurement,setting,value
"Arath Fbox (Arabidopsis thaliana), NP_178341.1 (protein) EFTWGRKRRVKSESSPFDSFPEDCISYIISFTNPRDACVAATVSKTFESTVKSDIIWEKFLPADYESLIPPSRVFSSKKELYFSLCNDPVLFDDDKKSVWLEKASGKRCLMLSAMNLSIIWGDNPQYWQWIPIPESRFEKVAKLRDVCWFEIRGRTNTRVLSPRTRYSAYIVFKGVDKCYGFQNVAIEAAVGVVGQEPSRRLICFSEAIRRGRRNVVKPKQREDGWMEIELGEFFNDGGIMDNDEIEMSALETKQLNRKCGLIIQGIEIRPAKILAAAAASFLEQKLISEEDLNSAVDHHHHHH",glycan array binding signal (z-score),[1],-0.647
same,glycan array binding signal (z-score),[2],-0.106
same,glycan array binding signal (z-score),[3],-0.525
same,glycan array binding signal (z-score),[4],-0.41
same,glycan array binding signal (z-score),[5],-0.642
same,glycan array binding signal (z-score),[6],-0.782
same,glycan array binding signal (z-score),[7],3.21
same,glycan array binding signal (z-score),[8],0.859
same,glycan array binding signal (z-score),[9],-0.73
same,glycan array binding signal (z-score),[10],-0.533
same,glycan array binding signal (z-score),[11],-0.603
same,glycan array binding signal (z-score),[12],-0.112
same,glycan array binding signal (z-score),[13],-0.287
same,glycan array binding signal (z-score),[14],-0.262
same,glycan array binding signal (z-score),[15],0.131
same,glycan array binding signal (z-score),[16],-0.394
same,glycan array binding signal (z-score),[17],0.442
same,glycan array binding signal (z-score),[18],-0.507
same,glycan array binding signal (z-score),[19],0.842
same,glycan array binding signal (z-score),[20],-0.744
same,glycan array binding signal (z-score),[21],-0.592
same,glycan array binding signal (z-score),[22],-0.123
same,glycan array binding signal (z-score),[23],-0.722
same,glycan array binding signal (z-score),[24],-0.521
same,glycan array binding signal (z-score),[25],0.366
same,glycan array binding signal (z-score),[26],-0.396
same,glycan array binding signal (z-score),[27],-0.613
same,glycan array binding signal (z-score),[28],-0.759
same,glycan array binding signal (z-score),[29],-0.344
same,glycan array binding signal (z-score),[30],-0.31
same,glycan array binding signal (z-score),[31],-0.68
